Assay results reported in PubChem BioAssay AID463173 (ICCB-Longwood Screening Facility, Harvard Medical School, 2010).
Screen size: about 52,000 compounds; about 4,300 (8.3%) were called active. No stated cut-off is given here; in the data, active means survival mostly below about 52% (no sharp cut-off); inactive means mostly above about 56%. This is one part of the list.

Each compound was assayed on DeltatarO mutant (assay: growth inhibition of S. aureus wild type versus tarO mutant, primary screen, teichoic acid synthesis inhibitors, RN4220, OD600 (AID 463173)). Settings: OD600, 18 h, active compounds read low, screened at 18.75 µg/mL (by protocol).

SMILES | survival
COc1ccc(Nc2nc(C)nc(N)c2S(=O)(=O)c2ccccc2)cc1 | inactive: 84%
Cc1ccc(-c2cn3ccc(C)cc3n2)cc1 | active: 22%
CC(C)CCn1c(/C=C/c2ccccc2)nc2ccccc21 | active: -1%
Cc1cc(C)cc(NC(=O)CSc2nc3nccnc3c(=O)n2CCc2c[nH]c3ccccc23)c1 | active: 38%
CCOC(=O)Cn1c(=O)n(C2CCCCC2)c2nc(-c3c(F)cccc3Cl)nc(C(N)=O)c21 | inactive: 89%
CC(=O)c1cccc(NC(=O)CN(c2cc(C)cc(C)c2)S(=O)(=O)c2c(C)noc2C)c1 | inactive: 68%
COCc1nnc(NC(=O)C2CC(=O)N(c3ccc(C)cc3)C2)s1 (stereo not drawn) | inactive: 106%
N#Cc1c(C(F)(F)F)cc(-c2cccs2)nc1SCC(=O)Nc1cccc(Cl)c1 | inactive: 58%
COc1ccc(-c2onc(C)c2C)cc1S(=O)(=O)N(C)Cc1ccccc1 | inactive: 109%
Cc1cc(-n2ccnc(NCCc3ccc(S(N)(=O)=O)cc3)c2=O)ccc1Br | inactive: 94%
CCOc1ccc(N2CC(NC(=O)C3CCCC3)CC2=O)cc1 (stereo not drawn) | inactive: 83%
CCCNC(=O)C1CCC(Cn2c(=O)c3sccc3n(CC(=O)NCc3cccc(OC)c3OC)c2=O)CC1 (stereo not drawn) | inactive: 133%
Cc1ccc(C)c(N2CCN(CCCNC(=O)c3ccc4nc(CCc5ccccc5)oc4c3)CC2)c1 | inactive: 87%
COc1cccc(N2CC(NC(=O)c3cc(Cl)ccc3OC)CC2=O)c1 (stereo not drawn) | inactive: 64%
Cc1ccc(C(=O)N/C(=C\c2ccc(Cl)cc2)C(=O)NC2CCCCC2)cc1 | inactive: 86%
COc1ccc(OC)c(NS(=O)(=O)c2ccc(N3CCCCS3(=O)=O)cc2)c1 | inactive: 101%
COCCCNC(=O)c1ccc(Cn2c(=O)c3ccccc3n(Cc3c(C)cc(C)cc3C)c2=O)cc1 | inactive: 107%
C=CCN1C(=O)C2C(C(=O)NCc3ccccc3)C3C=CC2(O3)C1C(=O)NC1CCCC1 (stereo not drawn) | inactive: 64%
CCN1CCN(C(c2ccc(SC)cc2)c2c(O)cc(C)n(CCOC)c2=O)CC1 (stereo not drawn) | inactive: 94%
CCCCN(CC)C(=O)C1CCCN(c2ncnc3onc(C)c23)C1 (stereo not drawn) | inactive: 83%
Cc1ccccc1C(=O)N(Cc1sccc1C)C1CCS(=O)(=O)C1 (stereo not drawn) | inactive: 76%
COc1ccc(CCNC(=O)c2ccc(Cn3c(=O)c4ccccc4n(CC(=O)C(C)(C)C)c3=O)cc2)cc1OC | inactive: 86%

SMILES | survival
COc1cc(NC(=O)CCn2nc(C)c(S(=O)(=O)N3CCCCC3)c2C)cc(OC)c1OC | inactive: 124%
COc1ccccc1NC(=O)C1=C(C)Nc2c(C(=O)Nc3cccc(C)c3)cnn2C1c1ccccc1Cl (stereo not drawn) | active: -5%
CC1CCCCN1CCCNC(=O)CN1C(=O)c2cccnc2Oc2ccccc21 (stereo not drawn) | inactive: 105%
COc1ccc(Cl)cc1NC(=O)c1c(NCc2cccnc2)sc2c1CCC(C)C2 (stereo not drawn) | inactive: 67%
N#CC(C#N)=Cc1cn(CCOc2ccc3c(c2)OCO3)c2ccccc12 | inactive: 98%
CCc1ccc(C2C(C(=O)Nc3ccccc3C)=C(C)Nc3nc(SCc4cccc(OC)c4)nn32)cc1 (stereo not drawn) | inactive: 124%
CC(=O)c1ccc(NC(=O)CSc2nc(=O)n(Cc3ccncc3)c3c2CCC3)cc1 | inactive: 89%
Cc1ccc(N2CCN(C(=O)c3cn(C)c4ccc(S(=O)(=O)N(C)C)cc4c3=O)CC2C)cc1 (stereo not drawn) | inactive: 137%
CCS(=O)(=O)c1ncc(N(Cc2ccco2)Cc2ccccc2F)c(C(=O)Nc2cccc(Cl)c2)n1 | inactive: 60%
O=C(Cn1c(=O)nc(-c2ccccc2)c2ccccc21)NCc1ccccc1Cl | inactive: 67%
CCOC(=O)c1c(C)[nH]c(C)c1S(=O)(=O)NCC(=O)NCc1cccc(C)c1 | inactive: 134%
O=c1cc(-c2ccc(F)cc2)nc(SCc2nc(-c3ccc(Cl)cc3)no2)[nH]1 | inactive: 74%
CCOC(=O)c1ccc(CN(Cc2ccc(Br)cc2)S(=O)(=O)c2cccc(Cl)c2C)cc1 | inactive: 84%
COc1cc(C(=O)NCC(c2ccc(Cl)cc2)N2CCOCC2)cc(OC)c1OC (stereo not drawn) | inactive: 79%
Cc1ccc(NC(=O)Cn2nc(Cc3ccncc3)c3ccccc3c2=O)c(Cl)c1 | inactive: 66%
CCc1c(C)nc2nncn2c1NCc1ccc(Cl)cc1 | inactive: 86%
COc1ccccc1CNC(=O)CN1N=C(c2ccccc2)CCC1=O | inactive: 126%
O=C(CN1N=C(c2ccc(Cl)cc2)CCC1=O)NCCc1ccccc1 | inactive: 102%
O=C1C2C(C(=O)N1C13CC4CC(CC(C4)C1)C3)C1C=CC2C12CC2 (stereo not drawn) | inactive: 78%
CC(CN1CCCCC1)OC(=O)c1ccc2c(c1)OCO2 (stereo not drawn) | inactive: 98%
CCCCN(CC)CCNC(=O)c1cc2c(=O)n(CC)c3ccccc3c2s1 | inactive: 87%
CCCCNc1nc2ccccc2c2nc(-c3ccccc3)nn12 | active: -1%

SMILES | survival
Cc1ccccc1NC(=O)c1oc2c(c1C)-c1nn(Cc3cccc(Cl)c3)cc1CC2 | active: 35%
COc1ccc(CNC(=O)CS(=O)Cc2nc(-c3cccc(C)c3)oc2C)cc1 (stereo not drawn) | inactive: 75%
COc1cc(CNCCSc2nnnn2C)cc(Cl)c1OCc1ccccc1 | active: 44%
Fc1ccccc1N1CCN(c2nccn3nc(-c4ccc(Br)cc4)cc23)CC1 | inactive: 72%
CCn1c(=O)cc(OCC(=O)N(C)c2cc(Cl)ccc2C)c2ccccc21 | active: 55%
O=C(NCCO)c1nc2ccccc2s1 | inactive: 73%
COC(=O)c1ccccc1NC(=O)N1CCC(N2CCN(Cc3ccc(F)cc3)C(=O)C2=O)CC1 | inactive: 75%
CC(C)(C)C1CCc2nc(NC(=O)Cc3ccccc3)sc2C1 (stereo not drawn) | active: 19%
O=C(NCc1ccc(F)cc1)C1(c2cccs2)CCOCC1 | inactive: 102%
COc1cc(Nc2nc3c(S(=O)(=O)c4ccc(C)c(C)c4)nnn3c3ccsc23)cc(OC)c1 | inactive: 49%
CCOC(=O)c1c(NC(=O)C2c3ccccc3Oc3ccccc32)sc(C)c1CC | active: 24%
CCOc1ccc(CCNC(=O)c2nn(C)c3c2CSc2ccccc2-3)cc1 | inactive: 75%
CCOc1ccccc1CNC(=O)CCCn1ccc2cc(S(=O)(=O)N3CCCC3)ccc21 | inactive: 95%
Cc1cccc(C(=O)NNc2ncnc3c2cnn3-c2ccc(C)cc2C)c1 | inactive: 106%
O=C(O)c1ccc(NC(=O)c2cc(S(=O)(=O)N3CCCCC3)c(Cl)cc2Cl)cc1 | inactive: 165%
CC(C)c1ccc(S(=O)(=O)c2cnc(SCC(=O)Nc3ccc4c(c3)OCCO4)[nH]c2=O)cc1 | inactive: 69%
COc1cccc(C(=O)Nc2nnc(S(=O)(=O)N3CCCC3)s2)c1 | active: 33%
Cc1ccc(Cn2cnc3nc4c(cc3c2=O)CC(C)CC4)cc1 (stereo not drawn) | active: 20%
CSc1ccc(-c2nc3cccc(C)n3c2Nc2ccc(Cl)cc2)cc1 | inactive: 93%
COc1ccccc1N1C(=O)N(CC(=O)C(C)(C)C)c2ccccc2S1(=O)=O | inactive: 86%
O=C(c1cccs1)N(Cc1nc2sc3c(c2c(=O)[nH]1)CCCC3)C1CCCC1 | active: 45%
COc1ccc(NC(=O)CS(=O)CC(=O)NC2CCCc3ccccc32)cc1 (stereo not drawn) | inactive: 60%

SMILES | survival
CN(C)CCNC(=O)c1ccc(-c2nn(C)c(=O)c3ccccc23)cc1 | inactive: 136%
O=C1CN(C(=O)COc2ccc(Cl)cc2Cl)C(c2ccccc2)c2cc(F)ccc2N1 (stereo not drawn) | inactive: 88%
CCC(C)NC(=O)CCCc1nnc2n(CC(C)C)c(=O)c3sccc3n12 (stereo not drawn) | inactive: 94%
CCOc1ccc(NC(=O)c2cc(S(=O)(=O)NC3CCCCCC3)ccc2F)cc1 | inactive: 92%
Cc1ccccc1-c1noc(-c2ccc(NCc3ccco3)c([N+](=O)[O-])c2)n1 | inactive: 73%
COc1ccc2c(c1)CCc1c(C(=O)Nc3c(C)nn(Cc4ccccc4)c3C)noc1-2 | inactive: 118%
CCCNC(=O)CN1C(=O)CSc2ccc(S(=O)(=O)N3CCC(C)CC3)cc21 | inactive: 88%
Cc1ccc(Nc2c(C(C)C)c(C)c(C#N)c3nc4ccccc4n23)cc1 | inactive: 62%
O=C(CNCc1ccco1)Nc1ccccc1-n1cccc1 | inactive: 94%
Cc1cccc(CNC(=O)Cn2ccc3cc(S(=O)(=O)N4CCCCCC4)ccc32)c1 | active: -5%
COc1cccc(NC(=O)C(Cc2ccccc2)NS(=O)(=O)c2ccc3c(c2)c(=O)n(C)c(=O)n3C)c1 (stereo not drawn) | inactive: 79%
O=C(CN1C(=O)CSc2ccc(S(=O)(=O)N3CCCC3)cc21)Nc1cccc(Cl)c1 | inactive: 96%
COc1ccc2c(Sc3ccc(C)cc3)c(C(=O)NC(C)C)[nH]c2c1 | inactive: 86%
CCOc1ccccc1NC(=O)CSc1nccn1-c1cccc(C)c1 | inactive: 86%
Cc1ccc(NC(=O)/C=C\C(=O)N(c2ccc(C(C)C)cc2)C(C(=O)NCc2ccco2)c2ccc(F)cc2)cc1 (stereo not drawn) | inactive: 80%
CCOc1ccc(-n2c(=O)c3c(C)c(C)sc3n(CC(=O)NCCc3ccccc3)c2=O)cc1 | inactive: 84%
CCOc1ccc(C2CC(=O)c3c([nH]c(C(=O)OCC4CCCCC4)c3C)C2)cc1 (stereo not drawn) | inactive: 64%
O=c1oc2ccccc2c(N2CCN(c3ccccc3F)CC2)c1CN1CCCC1 | inactive: 89%
COCCCNC(=O)c1nn(-c2ccc(C)cc2)nc1CO | inactive: 82%
O=C(NC1CCCC1)c1ccc2c(=O)n(Cc3ccccc3)c(SCc3cccc(F)c3)nc2c1 | inactive: 72%
CCN(CC)c1ccc(NC(=O)CCCN2C(=O)C(c3ccccc3)Oc3cccnc32)c(C)c1 (stereo not drawn) | inactive: 75%
CCCCC1C(=O)NC(=Nc2nc(C)c3ccc(OC)cc3n2)NC1=O (stereo not drawn) | inactive: 79%
